Measured values: PubChem BioAssay AID2675 (National Center for Advancing Translational Sciences (NCATS), 2010)
Hit rate of the full screen: of about 280,000 compounds, about 100 (0.036%) were called active. This list was built around the results that the source calls inconclusive (neither active nor inactive); the mix of calls is not that of the screen. Calls follow the shape of the dose curve; as a rule, active = well fitted inhibition curve with a large enough effect in the signal ratio, with a control signal flat (not every such curve was filed as active); inconclusive = small, poorly fitted or top-dose-only effect, or effect the other way, or a change in a side signal; inactive = no such curve, though single readings can be large or run the other way; the % refers to the signal ratio. A potency beside an inconclusive call is a rough fit, not a confirmed value. A note “side channel” means that the fit belongs to a control or component signal, not to the main read-out.

Target: Muscleblind-like protein 1 (Homo sapiens) (UniProt Q9NR56)
Sequence of UniProt Q9NR56 (Q9NR56 whole entry, looked up): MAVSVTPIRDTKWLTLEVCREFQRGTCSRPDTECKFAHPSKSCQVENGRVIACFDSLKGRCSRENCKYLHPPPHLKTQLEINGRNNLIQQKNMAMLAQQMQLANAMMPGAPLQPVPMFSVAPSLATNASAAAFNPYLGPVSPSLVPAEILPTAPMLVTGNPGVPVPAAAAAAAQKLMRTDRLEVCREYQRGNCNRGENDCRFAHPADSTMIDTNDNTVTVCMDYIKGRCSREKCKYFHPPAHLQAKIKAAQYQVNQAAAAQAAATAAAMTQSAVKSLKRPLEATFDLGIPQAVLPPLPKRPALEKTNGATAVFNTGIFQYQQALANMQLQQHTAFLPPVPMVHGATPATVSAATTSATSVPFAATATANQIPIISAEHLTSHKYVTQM
Test: qHTS Assay for Inhibitors of MBNL1-poly(CUG) RNA binding
Conditions: TR-FRET MBNL1-His/biotin-(CUG)12 binding, 665/545 ratio; series mostly up to 57.5 µM
How it was run: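 Compound titration spanned 92 nM–58 uM against the MBNL1-His/biotin-(CUG)12 complex. After 60 min at room temperature with 5 nM streptavidin-XL665 and 0.055 ng/ul terbium anti-His, ratiometric 665/545 nm emission (Ex 340 nm) normalized to controls.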
Potency is read from the fitted curve at half-maximal effect; tags tell the direction and shape of the fitted curve or compound fluorescence and quenching.

| Structure (SMILES) | Potency |
| --- | --- |
| CS(=O)(=O)c1cnc(-c2ccccc2)nc1Oc1ccc(F)cc1 | inconclusive: 39.8 µM [quencher, side channel, single point] |
| CN(C)/C=N/c1nc2nccc(-c3ccccn3)n2n1 | inactive |
| Cc1ccc(-n2c(N)c(C(N)=O)sc2=S)cc1 | inconclusive: 15.8 µM [quencher, partial curve] |
| COc1cc(CN(C)C)cc(C=O)c1O | inactive |
| O=C1S/C(=C\c2ccc(Cl)cc2)C(=O)N1CCn1cnnn1 | inconclusive: 14.1 µM [quencher, side channel, partial curve] |
| C/C(=N/NC(=O)CNC(=O)c1cccnc1)c1ccc([N+](=O)[O-])cc1 | inconclusive: 12.6 µM [quencher, side channel, partial curve] |
| Cc1ccc(CNC(=O)CCCNS(=O)(=O)c2cccc3nonc23)cc1 | inconclusive: 22.4 µM [quencher, side channel, partial curve] |
| C/C(Cn1cnc([N+](=O)[O-])n1)=N\NC(=O)c1ccccc1 | inconclusive: 5.01 µM [quencher, side channel, full curve] |
| O=C(/C=C/Nc1cccc(O)c1)c1ccccc1 | inconclusive: 25.1 µM [quencher, side channel, partial curve] |
| Cc1cc(NC(=O)c2ccc([N+](=O)[O-])cc2)no1 | inconclusive: 1.58 µM [quencher, side channel, partial curve] |
| COc1ccc(CCn2c(-c3ccco3)nc3nc4ccccc4nc32)cc1 | inconclusive: 7.94 µM [quencher, side channel, full curve] |
| O=C(NCC(O)COc1ccc([N+](=O)[O-])cc1)c1ccccc1 (centres undefined) | inconclusive: 20 µM [quencher, side channel, single point] |
| CCCOc1ccc(CNC(=S)N/N=C/c2ccc([N+](=O)[O-])cc2)cc1 | inactive |
| Cc1cc2cc(C(c3nnnn3Cc3ccco3)N3CCc4ccccc4C3)c(=O)[nH]c2cc1C (centres undefined) | inconclusive: 20 µM [quencher, side channel, single point] |
| COc1cc(C2C(C#N)=C(N)N(c3ccc(F)cc3)C3=C2S(=O)(=O)CC3)ccc1O (centres undefined) | inconclusive: 39.8 µM [quencher, side channel, single point] |
| COc1ccc(OC)c2c1sc(=NC(=O)c1cccc(N3C(=O)CCC3=O)c1)n2C | inconclusive: 3.55 µM [quencher, side channel, single point] |
| CC1=CC(C)(C)n2c(O)c(N=N)c3c(C)ccc1c32 | inconclusive: 39.8 µM [quencher, side channel, single point] |
| CCc1ccc(OCC(=O)NC(C)(C)C)cc1 | inconclusive: 7.08 µM [quencher, side channel, single point] |
| Nc1cccc2c1C(=O)N(CCOc1ccccc1F)C2=O | inconclusive: 15.8 µM [quencher, side channel, partial curve] |
| NC(=O)C[n+]1cccc2ccccc21 | inconclusive: 14.1 µM [quencher, side channel, partial curve] |
| CCOC(=O)C1CCN(S(=O)(=O)c2ccc(OC)c(C(=O)N3CCCCCC3)c2)CC1 | inactive |
| COc1ccc(NS(=O)(=O)c2cc(NC(=O)c3ccco3)ccc2N2CCCCC2)cc1 | inactive |

| Structure (SMILES) | Potency |
| --- | --- |
| O=C(COC(=O)c1cc(=O)[nH]c2ccccc12)c1ccc(Br)cc1 | inactive |
| Cc1nnsc1C(=O)NNS(=O)(=O)c1cc(C(F)(F)F)cc(C(F)(F)F)c1 | inactive |
| CCc1ccc(NC(=S)N2CCCC2)cc1 | inactive |
| CCn1c(COc2ccccc2C)nc2ccccc21 | inconclusive: 0.501 µM [quencher, side channel, single point] |
| O=C(CN1CCCCC1)NC(=O)NCc1ccccc1 | inconclusive: 2.51 µM [fluorescent, side channel, full curve, poor fit] |
| CCOC(=O)/C(N=Nc1c(C)n(C)n(-c2ccccc2)c1=O)=C(/O)c1ccccc1 | inconclusive: 28.2 µM [quencher, side channel, single point] |
| Nc1ccc2oc(-c3cc(Br)ccc3Cl)nc2c1 | inconclusive: 7.08 µM [fluorescent, side channel, single point] |
| N#Cc1cc([N+](=O)[O-])ccc1NCCCn1ccnc1 | inconclusive: 15.8 µM [quencher, partial curve] |
| COc1ccc(-c2nc3ccccc3nc2-c2ccccc2)cc1OC | inconclusive: 15.8 µM [quencher, side channel, partial curve] |
| CCC(=O)Nc1nnc(S(=O)(=O)N2c3ccccc3CC2C)s1 (centres undefined) | inactive |
| CCOc1ccc(Cn2c(C)nc([N+](=O)[O-])c2SCC(O)CCl)cc1[N+](=O)[O-] (centres undefined) | inconclusive: 20 µM [quencher, side channel, partial curve] |
| CC1(C)Cc2c(c(N3CCOCC3)nc3sc(-c4ccc(C(=O)O)o4)c(N)c23)CO1 | inconclusive: 14.1 µM [quencher, side channel, partial curve] |
| CC(C)(C)n1cn[nH]c1=S | inactive |
| CCOC(=O)N1CCN(C(=O)C2CCN(S(=O)(=O)c3ccc(NC(C)=O)cc3)CC2)CC1 | inactive |
| CCN=c1scc(-c2ccco2)n1/N=C/c1ccc(O)cc1 | inconclusive: 39.8 µM [quencher, single point] |
| Cc1nnc2sc(COc3ccccc3)nn2c1=O | inactive |
| COC(=O)c1cc(-c2c(-c3cc(OC)c(OC)c(OC)c3)noc2C)cc([N+](=O)[O-])c1 | inconclusive: 17.8 µM [quencher, side channel, partial curve] |
| O=C(Nc1cccc(-c2cn3cccnc3n2)c1)c1ccc2c(c1)OCO2 | inconclusive: 35.5 µM [quencher, side channel, single point] |
| COc1ccc(C2=NN(C(C)=O)C(c3cccs3)C2)cc1OC (centres undefined) | inconclusive: 28.2 µM [quencher, side channel, single point] |
| Cc1c(NC(=O)/C(C#N)=C/c2ccc(-c3cccc(Cl)c3)o2)c(=O)n(-c2ccccc2)n1C | inconclusive: 15.8 µM [quencher, side channel, partial curve] |
| O=[N+]([O-])c1ncn(C23CC4CC(CC(C4)C2)C3)n1 | inconclusive: 28.2 µM [quencher, side channel, partial curve] |
| O=[N+]([O-])c1cc2c(cc1C=Nc1ccccc1)OCO2 | inconclusive: 15.8 µM [quencher, side channel, partial curve] |

| Structure (SMILES) | Potency |
| --- | --- |
| COc1ccccc1-c1c(C)nn2c(NCCN3CCCC3)cc(C)nc12 | inconclusive: 0.891 µM [quencher, side channel, single point] |
| CC(C)(C)NC(=O)C(c1ccncc1)N(C(=O)c1csnn1)c1ccccc1 (centres undefined) | inconclusive: 8.91 µM [quencher, side channel, single point] |
| Cc1cc2cc(C)c3nnc(SCC(=O)N4CCCc5ccccc54)n3c2cc1C | inconclusive: 8.91 µM [quencher, side channel, single point] |
| COc1ccc(-n2ncc3c(N4CCC(C)CC4)ncnc32)cc1 | inactive |
| C/C(=C\C(=O)c1ccncc1)Nc1ccccc1O | inconclusive: 35.5 µM [quencher, side channel, partial curve] |
| COC(=O)C1CSC(C(=O)OC)N1C(=O)Nc1ccc(Cl)cc1 (centres undefined) | inactive |
| COc1ccc([N+](=O)[O-])cc1-c1[nH]c(-c2ccc(C(=O)O)cc2)nc1-c1ccccc1 | inconclusive: 25.1 µM [quencher, side channel, partial curve] |
| CC(=O)c1ccc(-c2nc3ccccc3n2C)o1 | inconclusive: 17.8 µM [quencher, side channel, partial curve] |
| Cc1ccccc1NC(=O)/C(C#N)=C\c1cn(CC(=O)O)c2ccccc12 | inconclusive: 28.2 µM [quencher, side channel, single point] |
| COc1ccc(CCNc2nc(-c3ccncc3)cs2)cc1OC | inactive |
| Cc1ccc(Nc2cc(C)c(O)c(C)c2)cc1 | inactive |
| O=C1NC(c2ccccc2)=C(c2nc3ccccc3s2)C(c2ccc(O)cc2)N1 (centres undefined) | inactive |
| C=CCNC(=S)Nc1cccc([N+](=O)[O-])c1 | inconclusive: 14.1 µM [quencher, side channel, partial curve] |
| CC(=O)c1cccc(NC(=O)C2=CC(c3ccc4c(c3)OCO4)=NS(=O)(=O)N2C)c1 | inconclusive: 22.4 µM [quencher, side channel, partial curve] |
| COc1ccc(/C=N/Nc2nc3ccccc3o2)cc1O | inconclusive: 31.6 µM [quencher, side channel, single point] |
| O=C(NCc1ccc2c(c1)OCO2)c1cc2ccccc2oc1=O | inconclusive: 1.78 µM [fluorescent, side channel, full curve] |
| O=C(OC(C(=O)Nc1ccc(Cl)cc1C(F)(F)F)c1ccccc1)C1=COCCO1 (centres undefined) | inconclusive: 0.1 µM [fluorescent, side channel, partial curve] |
| CCCn1c(C(Cc2ccccc2)NC(=O)COC)nc2ccccc21 (centres undefined) | inconclusive: 1 µM [quencher, side channel, single point] |
| CCOC(=O)Cn1c(=O)cc(C)c2ccccc21 | inactive |
| CCC1=NN(C(=O)C(=O)Nc2ccc(OC)cc2)C(O)(C(F)(F)F)C1 (centres undefined) | inconclusive: 79.4 µM [inhibitor, single point] |
